Reference: PubChem BioAssay AID2675 (National Center for Advancing Translational Sciences (NCATS), 2010)
In all, about 280,000 compounds went through this assay and about 100 (0.036%) were called active. The inconclusive results got no clear call from the source; some entries with a clear call stand among them for comparison. Calls come from the whole dose curve; as a rule, active = well fitted inhibition curve with a large enough effect in the signal ratio, with a control signal flat (not every such curve was filed as active); inconclusive = small, poorly fitted or top-dose-only effect, or effect the other way, or a change in a side signal; inactive = no such curve, though single readings can be large or run the other way; the % refers to the signal ratio. Potencies beside an inconclusive call are fits to weak or partial responses and may not hold up. A note “side channel” means that the fit belongs to a control or component signal, not to the main read-out.

Target: Muscleblind-like protein 1 (Homo sapiens) (UniProt Q9NR56)
UniProt Q9NR56, sequence (Q9NR56 whole entry, looked up): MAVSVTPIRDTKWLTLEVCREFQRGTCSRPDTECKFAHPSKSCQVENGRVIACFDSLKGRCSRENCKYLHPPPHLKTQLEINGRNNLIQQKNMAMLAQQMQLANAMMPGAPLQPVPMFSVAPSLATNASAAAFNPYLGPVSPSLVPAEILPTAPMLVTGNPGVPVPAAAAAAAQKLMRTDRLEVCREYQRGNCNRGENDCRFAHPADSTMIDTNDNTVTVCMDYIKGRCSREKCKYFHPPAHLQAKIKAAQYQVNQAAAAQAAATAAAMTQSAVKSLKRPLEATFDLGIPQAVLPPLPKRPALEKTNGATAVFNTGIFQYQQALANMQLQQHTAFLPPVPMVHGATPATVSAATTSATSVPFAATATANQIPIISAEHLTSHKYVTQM
Assay: qHTS Assay for Inhibitors of MBNL1-poly(CUG) RNA binding
Details: TR-FRET MBNL1-His/biotin-(CUG)12 binding, 665/545 ratio; activity change, negative = inhibition: at 57.5 µM (top of the series)
Procedure, shortened: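 Compounds (final 92 nM to 58 uM) are added to His-tagged MBNL1 and biotin-(CUG)12, then terbium anti-His antibody and streptavidin-XL665 (5 nM final). After 60 min at room temperature, the 665/545 nm ratio is read.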
% is set by controls: 0 for no effect and ±100 for the full control effect; potency is the fitted concentration of half-maximal effect; tags give direction and shape of the fitted curve or compound fluorescence and quenching.

Question: With `O=[N+]([O-])c1ccc(CP(=O)(c2ccccc2)c2ccccc2)cc1` as the molecule, how does the Potency read?
Answer: inconclusive: 7.08 µM [quencher, side channel, partial curve]

Question: `Nc1ccc(C(=O)c2cccs2)cc1[N+](=O)[O-]` was tested. Which Potency did it give?
Answer: inconclusive: 14.1 µM [quencher, side channel, partial curve]

Question: With `CSc1ccc(CN2CCN(Cc3ccc([N+](=O)[O-])cc3)CC2)cc1` as the molecule, how does the Potency read?
Answer: inconclusive: 39.8 µM [quencher, side channel, single point]

Question: With `O=C1c2ccccc2C(=O)C1c1ccc(Cl)cc1` as the molecule, how does the Potency read?
Answer: inconclusive: 31.6 µM [quencher, side channel, single point]

Question: `CC(Sc1ccsc1[N+](=O)[O-])C(=O)NCCc1ccc(Cl)cc1` (stereo unspecified) was tested. Which Potency did it give?
Answer: inconclusive: 15.8 µM [quencher, partial curve]

Question: With `CC(C)NC(=O)c1ccc2c3n(nc2c1)-c1ccccc1CO3` as the molecule, how does the Potency read?
Answer: inconclusive: 11.2 µM [quencher, side channel, partial curve]

Question: `O=C1NC(=S)S/C1=C\C=C\c1ccc([N+](=O)[O-])o1` was tested. Which Potency did it give?
Answer: inconclusive: 14.1 µM [quencher, side channel, partial curve]

Question: How did the Potency turn out when `COc1ccc(-c2ccn(-c3cccc(F)n3)n2)cc1` was run?
Answer: inconclusive: 17.8 µM [quencher, side channel, single point]

Question: For `Cc1ccnc(SCC(=O)c2cc3ccccc3o2)n1`, which Potency is on record?
Answer: inconclusive: 25.1 µM [quencher, side channel, partial curve]

Question: `Cc1ccc2c(C)ccc(O)c2n1` was tested. Which “activity change, negative = inhibition” value did it give?
Answer: inactive: 21.1%

Question: How did the “activity change, negative = inhibition” value turn out when `Clc1ccc(NC2(c3nnnn3C3CCCCC3)CCCCC2)cc1` was run?
Answer: inactive: -4.11%

Question: Which Potency does the source give for `OC(COCC(F)(F)C(F)(F)C(F)(F)C(F)F)Cn1c2ccc(Cl)cc2c2cc(Cl)ccc21` (stereo unspecified) here?
Answer: inconclusive: 0.1 µM [fluorescent, side channel, full curve]

Question: How did the “activity change, negative = inhibition” value turn out when `CC1=Nn2c(nnc2-c2ccco2)SC1` was run?
Answer: inactive: -5.15%

Question: `COc1cc(/C=C2/SC(=O)NC2=O)ccc1OC(=O)c1ccco1` was tested. Which “activity change, negative = inhibition” value did it give?
Answer: inactive: 9.08%

Question: `O=C(CN1CCN(c2ccccc2F)CC1)c1c[nH]c2ccc(F)cc12` was tested. Which “activity change, negative = inhibition” value did it give?
Answer: inactive: -2.28%

Question: How did the Potency turn out when `Cc1cc(NC(=O)CCCn2cnc([N+](=O)[O-])n2)no1` was run?
Answer: inconclusive: 14.1 µM [quencher, side channel, partial curve]

Question: For `COc1ccc(NC(=S)Nc2ccc(S(=O)(=O)N3CCOCC3)cc2)c(OC)c1`, which Potency is on record?
Answer: inconclusive: 39.8 µM [fluorescent, side channel, partial curve, poor fit]

Question: For `CCCCn1c(O)c(/C=C2\C=Nc3ccccc32)c(=O)[nH]c1=O`, which “activity change, negative = inhibition” value is on record?
Answer: inactive: 7.7%

Question: With `COC(=O)c1ccccc1NC(=O)c1noc2c1CC(C(C)(C)C)CC2` (stereo unspecified) as the molecule, how does the “activity change, negative = inhibition” value read?
Answer: inactive: 4.77%

Question: `COc1ccc(-c2ccnc(SCC(=O)c3ccc(Br)cc3)n2)cc1` was tested. Which Potency did it give?
Answer: inconclusive: 0.1 µM [fluorescent, side channel, full curve]

Question: How did the Potency turn out when `O=C1/C(=C/c2cccs2)SC(=S)N1C1CCS(=O)(=O)C1` (stereo unspecified) was run?
Answer: inconclusive: 1.12 µM [quencher, side channel, full curve]

Question: Which Potency does the source give for `CCC1=NC(c2ccc(OC)c(OC)c2)N(O)C1(C)C` (stereo unspecified) here?
Answer: inconclusive: 39.8 µM [quencher, side channel, single point]

Question: `Cc1ccc(C(=O)C2=C(O)C(=O)N(c3ncccn3)C2c2ccccc2F)o1` (stereo unspecified) was tested. Which Potency did it give?
Answer: inconclusive: 28.2 µM [quencher, side channel, partial curve]

Question: With `O=C(N/N=C/C=C\c1ccccc1[N+](=O)[O-])c1ccccn1` as the molecule, how does the Potency read?
Answer: inconclusive: 1 µM [quencher, side channel, partial curve, poor fit]

Question: Which Potency does the source give for `[N-]=[N+]=CC(=O)CC(c1ccccc1)N1C(=O)c2ccccc2C1=O` (stereo unspecified) here?
Answer: inconclusive: 31.6 µM [quencher, side channel, single point]

Question: `CC1CN(C(=O)COC(=O)c2cc([N+](=O)[O-])ccc2Cl)CC(C)O1` (stereo unspecified) was tested. Which Potency did it give?
Answer: inconclusive: 4.47 µM [quencher, side channel, full curve]

Question: With `O=C(CSc1nc2ccsc2c(=O)n1Cc1ccccc1)NCc1ccco1` as the molecule, how does the Potency read?
Answer: inconclusive: 39.8 µM [fluorescent, side channel, partial curve]

Question: For `Cc1ccc(Cn2ccc(C3CC3)n2)cc1`, which “activity change, negative = inhibition” value is on record?
Answer: inactive: -1.05%

Question: `CC(C)OC(=O)CCCN1C(=O)c2ccc(N)cc2C1=O` was tested. Which Potency did it give?
Answer: inconclusive: 20 µM [quencher, side channel, single point]

Question: With `O=C(N/N=C\c1ccco1)Nc1cccc(Cl)c1` as the molecule, how does the Potency read?
Answer: inconclusive: 15.8 µM [quencher, side channel, single point]

Question: How did the Potency turn out when `O=C1/C(=C\c2cccc([N+](=O)[O-])c2O)SC(=S)N1Cc1ccccc1` was run?
Answer: inconclusive: 0.631 µM [quencher, side channel, full curve]

Question: How did the Potency turn out when `Cc1ccc(/C=N/N2C(=O)C3C(C2=O)C2C=CC3C23CC3)o1` (stereo unspecified) was run?
Answer: inconclusive: 22.4 µM [quencher, single point]

Question: With `C=CCC1(C#N)C(=S)NC2=C(C(=O)CC(C)(C)C2)C1c1ccc(Br)cc1` (stereo unspecified) as the molecule, how does the Potency read?
Answer: inconclusive: 3.16 µM [quencher, side channel, single point]

Question: How did the Potency turn out when `COCc1cc(C)nc2sc(C(=O)Nc3ccc(OC)cc3)c(N)c12` was run?
Answer: inconclusive: 28.2 µM [quencher, single point]

Question: How did the “activity change, negative = inhibition” value turn out when `CCCCS(=O)(=O)N1CCCC(C(=O)NCCc2ccccc2)C1` (stereo unspecified) was run?
Answer: inactive: -2.86%

Question: With `Cc1ccc(SCC(=O)NNC(=O)c2ccccc2)cc1C` as the molecule, how does the “activity change, negative = inhibition” value read?
Answer: inactive: 0.24%

Question: Which Potency does the source give for `NS(=O)(=O)c1ccc(Nc2c([N+](=O)[O-])cncc2[N+](=O)[O-])cc1` here?
Answer: inconclusive: 10 µM [quencher, side channel, partial curve]

Question: For `CCCCC[n+]1ccn(C2=C([O-])c3ccccc3C(=O)/C2=N\S(=O)(=O)c2ccccc2)c1`, which Potency is on record?
Answer: inconclusive: 3.98 µM [quencher, side channel, full curve]

Question: For `O=C(CSc1ccccc1C(=O)O)c1ccc([N+](=O)[O-])cc1`, which Potency is on record?
Answer: inconclusive: 15.8 µM [quencher, side channel, partial curve]

Question: Which “activity change, negative = inhibition” value does the source give for `N#CC1=C(N)Oc2cc(N)ccc2C1c1cccc(F)c1` (stereo unspecified) here?
Answer: inactive: 5.81%

Question: Which Potency does the source give for `CC(=O)Nc1sc(N/N=C\c2ccc(O)cc2)nc1-c1cccs1` here?
Answer: inconclusive: 39.8 µM [quencher, side channel, single point]
